Measured values: patent US10299477B2 (priority 2015, dated 2019)

How the values were obtained:
Format in all cases: in vivo
[1] = test system: Blumeria graminis f sp. hordei; assay: Test Example D: Powdery mildew on barley; conditions: in vivo
From the text: [Test Example D] Powdery Mildew on Barley
After the sprayed dilutions were dried, conidia of Blumeria graminis f sp. hordei were inoculated to the plants by shaking off.

Plasmopara viticola = assay: Test Example G: Downy mildew on vine; conditions: 250 ppm, sprayed 2.5 ml/pot before inoculation; evaluated 7-10 days after inoculation
From the text: [Test Example G] Downy Mildew on Vine
Seeds of a test plant (grape variety: Neomuscat) were planted followed by cultivating until three to four first leaves appeared. […] After the sprayed dilutions were dried, a zoosporangia suspension (1-2×10^4 zoosporangia/ml) of Plasmopara viticola was inoculated to the plants by spraying.

Botrytis cinerea = assay: Test Example B: Gray mold on tomato; conditions: in vivo
From the text: [Test Example B] Gray Mold on Tomato
Seeds of a test plant (tomato variety: Oogata Fukuju) were planted followed by cultivating until three to five first leaves (true leaves) appeared.

Puccinia recondita = assay: Test Example E: Brown rust on wheat; conditions: in vivo
From the text: [Test Example E] Brown Rust on Wheat

Alternaia brassicicola = assay: Test Example C: Alternaria sooty spot on cabbage; conditions: in vivo
From the text: [Test Example C] Alternaria Sooty Spot on Cabbage
Seeds of a test plant (cabbage variety: Shikidori) were planted followed by cultivating until the cotyledons extended.

SMILES | Test D (control value class, powdery mildew on barley) [1] | Test G (control value class, downy mildew on vine) (Plasmopara viticola) | Test B (control value class, gray mold on tomato) (Botrytis cinerea) | Test E (control value class, brown rust on wheat) (Puccinia recondita) | Test C (control value class, Alternaria sooty spot on cabbage) (Alternaia brassicicola)
CCn1c(-c2c(F)cccc2F)c(-c2cc(OC)cc(OC)c2Cl)ccc1=O [Compound 728] | H (H shows more than 50% of control values) | H (H shows more than 50% of control values) | H (H shows more than 50% of control values) | H (H shows more than 50% of control values) | H (H shows more than 50% of control values)
CCOc1cc(F)c(-c2c(-c3ccccc3Cl)ccc(=O)n2C)c(F)c1 [Compound 730] | H (H shows more than 50% of control values) | L (L shows 50% or less of control values) | H (H shows more than 50% of control values) | H (H shows more than 50% of control values) | H (H shows more than 50% of control values)
Cc1cc(-c2ccccc2Cl)c(-c2c(F)cc(F)cc2F)n(C)c1=O [Compound 731] | H (H shows more than 50% of control values) | H (H shows more than 50% of control values) | H (H shows more than 50% of control values) | H (H shows more than 50% of control values) | H (H shows more than 50% of control values)
COc1cc(F)c(-c2c(-c3ccccc3Cl)cc(Br)c(=O)n2C)c(F)c1 [Compound 732] | L (L shows 50% or less of control values) | L (L shows 50% or less of control values) | H (H shows more than 50% of control values) | H (H shows more than 50% of control values) | H (H shows more than 50% of control values)
COc1cc(F)c(-c2c(-c3ccccc3Cl)cc(C)c(=O)n2C)c(F)c1 [Compound 733] | H (H shows more than 50% of control values) | H (H shows more than 50% of control values) | H (H shows more than 50% of control values) | H (H shows more than 50% of control values) | H (H shows more than 50% of control values)
CCOc1cc(F)c(-c2c(-c3ccccc3Cl)cc(Cl)c(=O)n2C)c(F)c1 [Compound 734] | H (H shows more than 50% of control values) | H (H shows more than 50% of control values) | H (H shows more than 50% of control values) | H (H shows more than 50% of control values) | H (H shows more than 50% of control values)
CCn1c(-c2c(F)cccc2F)c(-c2ccc(OC)cc2Cl)ccc1=O [Compound 735] | H (H shows more than 50% of control values) | H (H shows more than 50% of control values) | H (H shows more than 50% of control values) | H (H shows more than 50% of control values) | H (H shows more than 50% of control values)
CCn1c(-c2c(F)cccc2F)c(-c2ccc(OC)cc2Cl)cc(Cl)c1=O [Compound 736] | H (H shows more than 50% of control values) | H (H shows more than 50% of control values) | H (H shows more than 50% of control values) | H (H shows more than 50% of control values) | H (H shows more than 50% of control values)
CCn1c(-c2c(F)cccc2F)c(-c2ccc(OC)cc2Cl)cc(Br)c1=O [Compound 737] | L (L shows 50% or less of control values) | H (H shows more than 50% of control values) | H (H shows more than 50% of control values) | H (H shows more than 50% of control values) | H (H shows more than 50% of control values)
CCn1c(-c2c(F)cc(F)cc2F)c(-c2cc(F)ccc2Cl)ccc1=O [Compound 738] | H (H shows more than 50% of control values) | L (L shows 50% or less of control values) | H (H shows more than 50% of control values) | H (H shows more than 50% of control values) | H (H shows more than 50% of control values)
CCn1c(-c2c(F)cc(OC)cc2F)c(-c2cc(F)ccc2Cl)ccc1=O [Compound 739] | H (H shows more than 50% of control values) | H (H shows more than 50% of control values) | H (H shows more than 50% of control values) | H (H shows more than 50% of control values) | H (H shows more than 50% of control values)
COc1ccc(-c2ccc(=O)n(C)c2-c2c(F)cccc2F)c(Cl)c1 [Compound 740] | L (L shows 50% or less of control values) | H (H shows more than 50% of control values) | H (H shows more than 50% of control values) | H (H shows more than 50% of control values) | H (H shows more than 50% of control values)
CCn1c(-c2c(F)cccc2F)c(-c2ccc(OC)cc2Cl)cc(C)c1=O [Compound 741] | H (H shows more than 50% of control values) | H (H shows more than 50% of control values) | H (H shows more than 50% of control values) | H (H shows more than 50% of control values) | H (H shows more than 50% of control values)
CCn1c(-c2c(F)cc(F)cc2F)c(-c2ccc(OC)cc2Cl)ccc1=O [Compound 742] | H (H shows more than 50% of control values) | H (H shows more than 50% of control values) | H (H shows more than 50% of control values) | H (H shows more than 50% of control values) | H (H shows more than 50% of control values)
COc1ccc(-c2cc(Cl)c(=O)n(C)c2-c2c(F)cccc2F)c(Cl)c1 [Compound 743] | H (H shows more than 50% of control values) | L (L shows 50% or less of control values) | H (H shows more than 50% of control values) | H (H shows more than 50% of control values) | H (H shows more than 50% of control values)
COc1ccc(-c2cc(Br)c(=O)n(C)c2-c2c(F)cccc2F)c(Cl)c1 [Compound 744] | L (L shows 50% or less of control values) | L (L shows 50% or less of control values) | L (L shows 50% or less of control values) | H (H shows more than 50% of control values) | L (L shows 50% or less of control values)
CCn1c(-c2c(F)cccc2F)c(-c2cccc(F)c2Cl)cc(Br)c1=O [Compound 745] | H (H shows more than 50% of control values) | H (H shows more than 50% of control values) | H (H shows more than 50% of control values) | H (H shows more than 50% of control values) | H (H shows more than 50% of control values)
CCn1c(-c2c(F)cc(F)cc2F)c(-c2ccc(OC)cc2Cl)cc(Cl)c1=O [Compound 746] | H (H shows more than 50% of control values) | L (L shows 50% or less of control values) | H (H shows more than 50% of control values) | H (H shows more than 50% of control values) | H (H shows more than 50% of control values)
CCn1c(-c2c(F)cc(F)cc2F)c(-c2ccc(OC)cc2Cl)cc(Br)c1=O [Compound 747] | H (H shows more than 50% of control values) | L (L shows 50% or less of control values) | H (H shows more than 50% of control values) | H (H shows more than 50% of control values) | H (H shows more than 50% of control values)
